Here are results for 54 molecules from ChEMBL document CHEMBL4888484, “Replenishing the malaria drug discovery pipeline: Screening and hit evaluation of the MMV Hit Generation Library 1 (HGL1) against asexual blood stage Plasmodium falciparum ,using a nano luciferase reporter read-out” (2022).

The % Inhibition is the change of the read-out against control, counted positive when it falls.

The test system of the test is Plasmodium falciparum. Nature of the test: Primary screen in NF54 nanoGlo assay, in single point, at 2uM, 72h; a lower Z score goes with more inhibition. The conditions noted are these: timepoint 72 hour. In kind it is functional, Erythrocyte.

SMILES strings stand for the structures. “And” between values parts separate entries of the source, which are not always exact repeats. Equal entries are not always repeated. Screen size: about 150,000 compounds; about 540 (0.36%) showed an effect of 50% or more. The list shows a part of the results.

Take `COc1ccccc1OCc1nc(C)nn1C[C@H]1COCCO1`: the “% Inhibition” value amounted to 0% and the Z score was -0.06.
The like results for `Cc1nccn1C1(C(=O)O)CCN(C(=O)c2cc3sccc3[nH]2)CC1` were, in that order, -11% and 1.03.
The like results for `COc1ccc(-c2nc(NCc3ccc(C)c(F)c3)[nH]c(=O)c2C#N)cc1` were, in that order, -2% and 0.38.
The corresponding values for `COc1cccc(F)c1C(=O)N1CCN(C)[C@H](c2ccccc2)C1` are 9% and -1.63.
For the molecule `O=S(=O)(CCC1CCCC1)N1CC[C@]2(CCOC2)C1`, the “% Inhibition” value is given as 33% and the Z score is -3.6.
With `Nc1c2c(-c3ccc(F)cc3)nc(NCCc3ccccc3)nc2nn1-c1ccccc1Cl`, the “% Inhibition” value is recorded as -40% and the Z score turned out to be 6.52.
The like results for `CCc1[nH]nc(-c2ccc(F)c(F)c2)c1NC(=O)c1ccccc1F` were, in that order, -13% and 1.9.
The like results for `COc1ccc(-c2nn(-c3ccccc3C)cc2CN(C)Cc2ccn[nH]2)cc1F` were, in that order, -2% and 0.31.
The like results for `C[C@H]1CN(C(=O)C(C)(C)C(F)F)Cc2ccccc2O1` were, in that order, -16% and 1.7.
For `CCNC(=O)C1CN(C(=O)c2nn(-c3ccccc3Cl)cc2C)C1`, the “% Inhibition” value was -18% and the Z score is listed as 2.47.
The like results for `Cc1nc(-c2ccc3ccccc3c2)n(CCCO)n1` were, in that order, -10% and 1.91.
The corresponding values for `COc1cccc(C(CC(=O)NC2CC2)c2cnc3n2C(C)CCC3)c1` (configuration not stated) are -15% and 1.8.
The like results for `CN1CC[C@H](NS(=O)(=O)c2cccc3ccoc23)C1` were, in that order, -12% and 1.25.
In the case of `Cn1ccc(CCNC(=O)NCCC2=CCCCCC2)n1`, the “% Inhibition” value is -9% and the Z score stood at 0.88.
The like results for `Cc1noc(C)c1-c1cccc(C(=O)NCC2(C)COC2)c1` were, in that order, -1% and 0.11.
The corresponding values for `O=C(NCCOc1ccc2c(c1)OCO2)NC[C@H]1CCCO1` are 4% and -0.85.
The like results for `CCc1cc(CC)n(-c2cnn(C)c2)n1` were, in that order, -6% and 0.56.
For the molecule `COC[C@H](C)C(=O)Nc1ccnc(C)c1Cl`, the “% Inhibition” value is recorded as -14% and the Z score is 1.84.
The corresponding values for `C[C@@H](C(=O)N1CCN(c2ccc(F)cc2)CC1)n1c2ccccc2c2cnn(C)c(=O)c21` are -2% and 0.28.
For `CN(Cc1cc(Cl)cc2c1OCC2)C1CC[S+]([O-])CC1` (configuration not stated), the “% Inhibition” value was 8% and the Z score is -1.47.
The corresponding values for `CN(C)[C@@]1(c2nnnn2C2CCCC2)CCN(C(=O)c2ccc(F)cc2F)C1` are -3% and 0.34.
The like results for `O=C(NCC1CCCO1)NC[C@@H]1Cc2ccccc2CO1` (some centres not stated) were, in that order, 6% and -0.94.
For the molecule `CN(CCC(=O)N1CCc2ccccc2C1)CCn1cccn1`, the “% Inhibition” value is listed as -10% and the Z score turned out to be 1.38.
The like results for `COc1cccc(-c2nc(NCCN3CCCCC3)nc3nn(C)c(N)c23)c1` were, in that order, -10% and 1.13.
The like results for `COc1ccc(S(=O)(=O)NC(CC(=O)NCC2CCCO2)c2ccco2)cc1` (configuration not stated) were, in that order, 12% and -1.44.
The corresponding values for `CCC1(CC)NC(=O)N(Cc2nc(C)c(C)o2)C1=O` are -15% and 1.81.
Take `C[C@]1(O)CCN(C(=O)c2ccc(N3CCCC3=O)cc2)C[C@H]1O`: the “% Inhibition” value is listed as -7% and the Z score came out at 0.84.
Turning to `CN(c1ccc(S(N)(=O)=O)cn1)[C@H]1CCOC1`, the “% Inhibition” value is reported as -30% and the Z score is recorded as 3.47.
The corresponding values for `COc1cccc(C(=O)NCC2(O)CCCC2)c1` are -10% and 1.36.
Regarding `CCOC(=O)[C@@H]1CCCCN1C(=O)Cn1cc(NC(=O)c2ccccc2)cn1`, the “% Inhibition” value is listed as -13% and the Z score was 2.1.
The corresponding values for `Cc1cccc(OC(C)C(=O)NC2CC3CCC2C3)c1` (configuration not stated) are -10% and 0.96.
`CNC(=O)[C@@H]1CN(Cc2ccc(Br)o2)C[C@H]1COC`: the “% Inhibition” value is reported as -5% and the Z score amounted to 0.77.
The like results for `CCCc1cc(C(=O)N[C@H]2COCC[C@@H]2OC)cs1` were, in that order, -6% and 0.75.
As to `CCN=C(NCCc1nc(C)no1)NCc1sccc1C`, the “% Inhibition” value is on record as -11% and the Z score was 1.04.
The like results for `CNS(=O)(=O)c1cccc(NC(=O)N2CCOCC[C@@H]2C)c1C` were, in that order, 5% and -0.77.
As to `CC(C)N(Cc1ccccn1)C(=O)c1csc(-c2ccco2)n1`, the “% Inhibition” value was -6% and the Z score was found to be 0.91.
The like results for `CCCC(=O)NC1CCCN(C(C)c2nnnn2C2CCCCC2)C1` (configuration not stated) were, in that order, -8% and 0.76.
The like results for `Cc1ccc(C(=O)Nc2cccc(COc3ccc4c(c3)OCO4)c2)cc1S(C)(=O)=O` were, in that order, -3% and 0.51.
The corresponding values for `Cc1cc(F)ccc1[C@@H]1CCCN1C(=O)c1cnc2n1CCOC2` are -1% and 0.2.
Regarding `CN1CCN(C)[C@@H](CNc2nccnc2N(C)C)C1`, the “% Inhibition” value is -6% and the Z score is reported as 0.87.
The like results for `CC(C)(NS(C)(=O)=O)C(=O)N1CCc2c(Cl)cc(F)cc2C1` were, in that order, -18% and 1.96.
The like results for `CCOc1cc(C(=O)Nc2ccc3nc4c(c(Nc5ccc(OC)c(OC)c5)c3c2)CCCC4)cc(OCC)c1OCC` were, in that order, 93% and -11.16.
The like results for `CC(=O)N1CCO[C@H](C(=O)Nc2cccc(-n3cc[nH]c3=O)c2)C1` were, in that order, -3% and 0.57.
For `COCc1ncc(CNc2ncnc3sc(C)c(C)c23)c(N)n1`, the “% Inhibition” value is on record as -6% and the Z score was 1.12.
As for `CC(=O)Nc1cccc(N2C(=O)[C@H](CCC(=O)N3CCc4ccccc4C3)N=C2O)c1`, the “% Inhibition” value (2 µM) was -4% and -8%.
Consider `Cc1scc(C(=O)NC2C3CC2N(c2nc(C4CCCC4)ns2)C3)c1C` (configuration not stated), for which the “% Inhibition” value is listed as -5% and the Z score came to 0.65.
The corresponding values for `O=C(Cc1ccc(Br)cc1)N(Cc1ccco1)[C@H]1CCS(=O)(=O)C1` are -2% and 0.28.
The corresponding values for `CC(C)Oc1ccc(-c2cc(C(F)(F)F)n3nc(-c4ccccc4)c(-c4ccccc4)c3n2)cc1` are -15% and 1.87.
The corresponding values for `CC(=O)N[C@@H]1CN(Cc2c[nH]nc2-c2ccc(F)cc2)C[C@H]1CO` are -20% and 3.4.
For the molecule `COc1cc(N[C@H]2CCCN(c3ccc(C#N)nc3)C2)cc(OC)c1`, the “% Inhibition” value is -9% and the Z score is reported as 0.97.
The like results for `Cc1cc(C(=O)Nc2nc(C(=O)Nc3nccs3)co2)no1` were, in that order, -9% and 1.65.
The like results for `O=S(=O)(c1cnn(CC2CC2)c1)N1CCNC[C@H]1c1cccc(Cl)c1` were, in that order, -14% and 1.4.
The corresponding values for `Cc1cccc(C)c1OCCC(=O)NS(=O)(=O)c1cccnc1` are -7% and 1.16.
With `Cc1cc(C)n(CCN2CCCN(C(=O)c3cccc(C(F)(F)F)c3)CC2)n1`, the “% Inhibition” value is given as -13% and the Z score came to 2.46.
